In all, about 340,000 compounds went through this assay and about 12,000 (3.5%) were called active. Inconclusive means that the source gave no clear call. Such entries were picked first, then a sample of the others. Calls follow the shape of the dose curve; as a rule, active = well fitted inhibition curve with a large enough effect; inconclusive = small, poorly fitted or top-dose-only effect, or another doubt; inactive = no such curve, though single readings can be large or run the other way. No potency is given beside an inconclusive call; the fits are too rough.
test: qHTS Assay for Inhibitors of Hepatitis C Virus (HCV); details: Huh7.5.1 HCVcc-Cre (HCVcc is cell-culture hepatitis C virus) infection, luciferase reporter, 44 h; series mostly up to 41.8 µM
Outline: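 Infectious HCV cell culture screen: compound-treated cells (1,000/well, pre-plated 4 h) are infected with HCVcc-Cre at roughly 0.5 moi and grown 44 h. Infection is quantified by luciferase signal after 15 min substrate incubation at room temperature.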
Potency is read from the fitted curve at half-maximal effect; tags tell the direction and shape of the fitted curve.

**Q.** With `C=C1CCN([C@@H](CC(C)C)C(=O)NCCC(C)C)S(=O)(=O)c2ccccc21` as the molecule, how does the Potency read?
**A.** Its Potency is inconclusive [inhibitor, single point].

**Q.** For `Cc1cccc(C(=O)Nc2c(C#N)c(C)c(C)n2Cc2ccccc2)c1`, which Potency is on record?
**A.** The Potency was inconclusive [inhibitor, single point].

**Q.** With `Cc1cccc(N2CCN(C(=O)CCS(=O)(=O)c3ccc4c(c3)oc(=O)n4C)CC2)c1C` as the molecule, how does the Potency read?
**A.** The Potency was active: 11.2 µM.

**Q.** With `COc1ccc(/C=C2\C(=O)NCC(=O)N2Cc2ccccc2)cc1` as the molecule, how does the Potency read?
**A.** Its Potency is inconclusive [inhibitor, single point].

**Q.** Which Potency does the source give for `CN1CCN(C(=O)C2=C[C@H](c3ccc4c(c3)OCO4)C[C@H](OCCCCO)O2)CC1` here?
**A.** The Potency was “inactive”.

**Q.** Which Potency does the source give for `O=C(c1ccc(N2CCN(C(=O)c3ccc(F)cc3F)CC2)cc1)c1cccc(F)c1` here?
**A.** Its Potency is active: 11.2 µM.

**Q.** Which Potency does the source give for `Cn1nc(C(F)(F)F)c(C(=O)Nc2ccc(C(F)(F)F)cc2)c1Cl` here?
**A.** Its Potency is inconclusive [inhibitor, partial curve].

**Q.** For `CSc1ccccc1NC(=O)c1cc2ncc(Br)cn2n1`, which Potency is on record?
**A.** The Potency was “inactive”.

**Q.** With `CCOc1ccc(C(=O)N[C@H](C(=O)Nc2ccc(S(=O)(=O)Nc3nccs3)cc2)C(C)C)cc1` as the molecule, how does the Potency read?
**A.** The Potency was “inactive”.

**Q.** Which Potency does the source give for `Cc1ccccc1NC(=O)CSc1nnc(-c2ccccn2)o1` here?
**A.** The Potency was “inactive”.

**Q.** With `O=C(CSCc1ccccc1)Nc1ccc(F)c(F)c1` as the molecule, how does the Potency read?
**A.** Its Potency is “inactive”.

**Q.** Which Potency does the source give for `O=c1cc2[nH]c3ccccc3c(=O)n2nc1-c1ccccc1` here?
**A.** Its Potency is “inactive”.

**Q.** With `CCc1ccccc1N(C)S(=O)(=O)c1ccc(-c2cc(C)no2)s1` as the molecule, how does the Potency read?
**A.** Its Potency is inconclusive [inhibitor, single point].

**Q.** Which Potency does the source give for `CC[C@]12c3[nH]c4ccccc4c3CCN1C(=O)C(CC(=O)NCCCn1ccnc1)C[C@@H]2C(=O)N1CCN(C(=O)c2ccco2)CC1` (stereo partly drawn) here?
**A.** Its Potency is inconclusive [inhibitor, single point].

**Q.** With `Cc1ccc(NC(=O)Cn2nnc(-c3ccccc3NC(=O)c3cccs3)n2)cc1` as the molecule, how does the Potency read?
**A.** Its Potency is inconclusive [inhibitor, full curve].

**Q.** Which Potency does the source give for `Cc1ccc(C(=O)O/N=C(\N)c2ccccn2)c(C)c1` here?
**A.** Its Potency is inconclusive [inhibitor, single point].

**Q.** With `O=C(Nc1ccc2oc(-c3ccc4ccccc4c3)nc2c1)c1ccc2c(c1)OCCO2` as the molecule, how does the Potency read?
**A.** The Potency was inconclusive [inhibitor, partial curve, poor fit].

**Q.** With `CCc1nn(CC(=O)N2CCN(c3ccc(OC)cc3)CC2)c(=O)c2cc3occc3n12` as the molecule, how does the Potency read?
**A.** Its Potency is inconclusive [inhibitor, full curve, poor fit].

**Q.** Which Potency does the source give for `CCc1cc2c(=O)c(-c3nc4ccccc4n3C)coc2c(CN2CCCCC2C)c1O` (stereo not drawn) here?
**A.** Its Potency is inconclusive [inhibitor, single point].

**Q.** Which Potency does the source give for `CC(=O)c1c(C)oc2c1cc(O)c1ccccc12` here?
**A.** Its Potency is inconclusive [inhibitor, single point].

**Q.** For `CC(C)(C)C(=O)NC(=S)Nc1ccccc1F`, which Potency is on record?
**A.** Its Potency is “inactive”.

**Q.** Which Potency does the source give for `NC1=NS(=O)(=O)NC1c1ccc(Br)cc1` (stereo not drawn) here?
**A.** The Potency was “inactive”.

**Q.** With `COc1cc(/C=C(\C#N)C(=O)Nc2ccc(SC(F)F)cc2)cc(OC)c1OC` as the molecule, how does the Potency read?
**A.** The Potency was “inactive”.

**Q.** With `O=C(NC1CC(=O)N(c2ccc3c(c2)OCCO3)C1)N1CCCCC1` (stereo not drawn) as the molecule, how does the Potency read?
**A.** The Potency was “inactive”.

**Q.** For `CCN(CC)CCN(C(=O)c1ccc2c(c1)OCCO2)c1nc2cc3c(cc2s1)OCO3`, which Potency is on record?
**A.** The Potency was inconclusive [inhibitor, full curve].

**Q.** Which Potency does the source give for `O=S(=O)(Cc1ccccc1)N1CCN(C/C=C/c2ccccc2)CC1` here?
**A.** Its Potency is inconclusive [inhibitor, single point].

**Q.** Which Potency does the source give for `COc1ccc(-c2csc(NC3OC(=O)c4ccccc43)n2)cc1` (stereo not drawn) here?
**A.** The Potency was inconclusive [inhibitor, partial curve].

**Q.** Which Potency does the source give for `Cn1c(OCc2cccnc2)nc2c1c(=O)n(Cc1ccc(Br)cc1)c(=O)n2C` here?
**A.** Its Potency is inconclusive [inhibitor, single point].

**Q.** Which Potency does the source give for `O=[N+]([O-])c1cc(/C=N/OCc2c(Cl)cccc2Cl)ccc1N1CCOCC1` here?
**A.** Its Potency is inconclusive [inhibitor, partial curve].

**Q.** With `Cc1ccc2nc(SCC(=O)N3CCN(c4ccccc4)CC3)nc(=O)n2c1` as the molecule, how does the Potency read?
**A.** The Potency was inconclusive [inhibitor, single point].

**Q.** For `Cc1ccsc1-c1nc(CSCC(=O)N2CCC3(CC2)OCCO3)c(C)o1`, which Potency is on record?
**A.** Its Potency is inconclusive [inhibitor, single point].

**Q.** For `COc1cc(NC2c3ccccc3C(=O)N2Cc2ccc3c(c2)OCO3)cc(OC)c1` (stereo not drawn), which Potency is on record?
**A.** Its Potency is inconclusive [inhibitor, full curve].

**Q.** With `CC(C)c1ccc(N(C(=O)c2snc(C(N)=O)c2N)C(C(=O)NCC2CCCO2)c2ccc(N(C)C)cc2)cc1` (stereo not drawn) as the molecule, how does the Potency read?
**A.** Its Potency is inconclusive [inhibitor, single point].

**Q.** For `Cn1c(N)c(C(=O)COC(=O)c2ccnc3ccccc23)c(=O)n(C)c1=O`, which Potency is on record?
**A.** The Potency was inconclusive [inhibitor, single point].

**Q.** With `CCN(CC)CCN(C(=O)c1ccc2c(c1)OCCO2)c1nc2c(Cl)cccc2s1` as the molecule, how does the Potency read?
**A.** Its Potency is inconclusive [inhibitor, partial curve].

**Q.** With `CCc1nn(CCCC(=O)NCc2ccco2)c(=O)c2cc3occc3n12` as the molecule, how does the Potency read?
**A.** Its Potency is inconclusive [inhibitor, full curve, poor fit].

**Q.** With `CC1=CC(c2ccc(Cl)cc2)n2ncnc2N1` (stereo not drawn) as the molecule, how does the Potency read?
**A.** Its Potency is active: 0.891 µM.

**Q.** Which Potency does the source give for `COCC(C)n1c(C)cc(C(=O)CSc2cc(C)c3ccccc3n2)c1C` (stereo not drawn) here?
**A.** Its Potency is inconclusive [inhibitor, single point].

**Q.** With `O=C(CN1CCN(c2ccccc2O)CC1)Nc1ccnn1C1CCCC1` as the molecule, how does the Potency read?
**A.** Its Potency is inconclusive [inhibitor, partial curve, poor fit].

**Q.** With `COc1ccc(N2CCN(C(c3cccs3)C(C)NC(=O)c3ccc4c(c3)OCO4)CC2)cc1` (stereo not drawn) as the molecule, how does the Potency read?
**A.** The Potency was inconclusive [inhibitor, full curve, poor fit].

**Q.** Which Potency does the source give for `COc1ccc(OC)c(S(=O)(=O)N2CCC(C(=O)NCCC3=CCCCC3)CC2)c1` here?
**A.** The Potency was “inactive”.

**Q.** With `Cc1ccc(O)c(C(=O)c2cnc3c(c2)c(C)nn3-c2ccccc2)c1` as the molecule, how does the Potency read?
**A.** The Potency was inconclusive [inhibitor, partial curve].

**Q.** For `Cc1cccc(NC(=O)c2sc3nc4c(c(-c5cccs5)c3c2N)CN(C)CC4)c1`, which Potency is on record?
**A.** The Potency was inconclusive [inhibitor, single point].

Reference: PubChem BioAssay AID651820 (National Center for Advancing Translational Sciences (NCATS), 2012)
